Here are results for 83 compounds from PubChem BioAssay AID1346428 (National Center for Advancing Translational Sciences (NCATS), 2018).

Molecules are shown by their SMILES. Hit rate of the full screen: of about 48,000 compounds, about 1,200 (2.5%) were called active. About 2% were inconclusive and are not listed.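 How the source made its calls: active means activation of at least 60% and not above a set upper limit (about 1 call in 100 departs from these limits); inconclusive means activation of 40% to 60%, or above that upper limit; inactive means activation under 40%.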 The list shows a part of the results.

Chain of UniProt O75388 (O75388 whole entry, looked up): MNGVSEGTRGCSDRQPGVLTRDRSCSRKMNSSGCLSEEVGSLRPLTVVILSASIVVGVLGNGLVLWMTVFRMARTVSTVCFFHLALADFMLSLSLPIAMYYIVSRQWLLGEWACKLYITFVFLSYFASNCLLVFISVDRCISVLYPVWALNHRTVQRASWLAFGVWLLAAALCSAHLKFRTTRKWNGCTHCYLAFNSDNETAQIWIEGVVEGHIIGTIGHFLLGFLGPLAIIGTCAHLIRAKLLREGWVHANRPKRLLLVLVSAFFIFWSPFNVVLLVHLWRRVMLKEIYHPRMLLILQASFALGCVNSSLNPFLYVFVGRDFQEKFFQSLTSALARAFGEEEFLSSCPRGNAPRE

The experiment deals with Probable G-protein coupled receptor 32 (Homo sapiens) (UniProt O75388). Nature of the experiment: qHTS for Agonists of Human Resolvin D1 Receptor DRV1. Particulars: CHO-K1 GPR32 beta-arrestin PathHunter luminescence, 90 min; at 76.9 µM; hits give high values; zero percent set by DMSO-only wells. Put shortly:
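Using DMSO wells as EC0, agonist-induced signal was taken as chemiluminescence from beta-Gal reconstituted upon beta-arrestin recruitment to GPR32 in CHO-K1 cells after 90 min compound treatment.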
In the case of `CCc1ccccc1OCCSc1nnc(-c2cc(OC)c(OC)c(OC)c2)o1`, the activation was inactive: 8.3%.

Regarding `COc1ccc(CNC(=O)C(=O)NCC(c2ccco2)S(=O)(=O)c2ccc(C)cc2)cc1` (stereo not drawn), the activation is inactive: -14.3%.

`COC(=O)N/N=C/c1c[n+]([O-])c2ccccc2[n+]1[O-]`: the activation was inactive: -3.42%.

With `COc1ccc(NC(=O)CN(C)S(=O)(=O)c2cccc3nsnc23)cc1`, the activation is inactive: -6.29%.

Consider `Cc1cc(S(=O)(=O)NCC(c2ccc(N(C)C)cc2)N2CCOCC2)ccc1F` (stereo not drawn), for which the activation is inactive: -21.6%.

As to `O=C(CSC1=Nc2ccccc2N=C(c2ccc(F)cc2)C1)NCc1ccc(Cl)cc1`, the activation is inactive: -26.8%.

As for `CCN(CC)c1ccc(NC(=O)c2cc3c(=O)n4cccc(C)c4nc3n2C)c(C)c1`, the activation was inactive: -1.18%.

As for `CCCCCNC(=O)CCn1c(=O)[nH]c2ccccc2c1=O`, the activation was inactive: -7.35%.

`CC(=O)c1ccc(NC(=O)c2nc3ccccc3n(C)c2=O)cc1`: the activation was inactive: 5.2%.

In the case of `CCn1nc(C)c2c(-c3ccccc3)cc(=O)n(C(C)C(=O)NCc3ccc(C)cc3)c21` (stereo not drawn), the activation is inactive: -2.55%.

With `CN(C(=O)CN(CCO)CC(=O)N(C)C(C)(C)Cc1ccccc1)C(C)(C)Cc1ccccc1`, the activation is inactive: 8.39%.

Regarding `COc1ccc(/C=C/c2nc3ccccc3c(=O)n2-c2cccc(C(F)(F)F)c2)cc1`, the activation was inactive: -11.1%.

For the compound `Cc1[nH]c(=O)[nH]c(=O)c1S(=O)(=O)N1CCN(c2cccc(Cl)c2)CC1`, the activation is inactive: 9.31%.

As for `Cc1ccc(CN(C(=O)COc2ccc(Cl)cc2Cl)C2CCS(=O)(=O)C2)o1` (stereo not drawn), the activation was inactive: -23.6%.

As to `COc1ccc(S(=O)(=O)c2nnn(-c3ccc(C)c(Cl)c3)c2C)cc1`, the activation was inactive: -1.54%.

For `Cc1cc(C)cc(NC(=O)C2CCN(S(=O)(=O)c3cccc(-c4noc(C)n4)c3)CC2)c1`, the activation is inactive: -0.107%.

On to `Cc1ccc(CNC(=O)CCCN2C(=O)COc3ccc(C)cc32)cc1`, for which the activation was inactive: -2.08%.

For `Fc1ccc(Br)cc1C1C=C(c2ccc(Br)cc2)Nc2nnnn21` (stereo not drawn), the activation is inactive: -41.3%.

For `CC1=Nc2cc(C(=O)NC(C)C)ccc2Sc2ccc(C)cc21`, the activation is inactive: 2.2%.

As to `O=C(CC1N=C2c3ccccc3N=C(SCC(=O)Nc3ccccc3F)N2C1=O)NCc1cccs1` (stereo not drawn), the activation is inactive: -17.1%.

`Cc1cccc(NC(=O)C(=O)NCCc2csc(-c3ccc(C(F)(F)F)cc3)n2)c1C`: the activation is inactive: -14.7%.

Regarding `Cc1ccc2sc(N(Cc3cccnc3)C(=O)C3COc4ccccc4O3)nc2c1C` (stereo not drawn), the activation was inactive: -1.73%.

Turning to `CC1CCc2c(sc(NC(=O)c3cc(-c4ccc(F)cc4)on3)c2C(N)=O)C1` (stereo not drawn), the activation is inactive: -1.75%.

With `Cc1ccc(NC(=O)c2c(NC(=O)c3ccccc3)sc3c2CCC3)cc1`, the activation was inactive: -4.56%.

Regarding `CCc1ccc(CN(C(=O)c2cc(=O)c3ccc(C)cc3o2)C2CCS(=O)(=O)C2)cc1` (stereo not drawn), the activation is inactive: -16.8%.

Consider `CCN(CC)CCNC(=O)c1ccc(-n2c(-c3ccccc3)cc3c2CCCC3)cc1`, for which the activation is inactive: -22.1%.

Turning to `COc1cccc(CNC(=O)CCCn2nc(C)c3c(C)n(-c4ccc(C)cc4)nc3c2=O)c1OC`, the activation is inactive: -11.4%.

Turning to `CC(C)Cn1c(=O)c2sccc2n2c(CCCC(=O)NC3CCCCC3)nnc12`, the activation is inactive: -7.87%.

As to `COc1cc(C2C(C(=O)Nc3ccccc3)=C(C)Nc3nnnn32)cc(OC)c1OC` (stereo not drawn), the activation is inactive: 9.15%.

Take `COc1ccc(-c2noc(CN(C(=O)c3cc(OC)c(OC)cc3OC)C(C)C)n2)cc1`: the activation is inactive: 1.25%.

In the case of `O=C(NC1CC(=O)N(c2ccc(Cl)cc2)C1)c1ccc(S(=O)(=O)N2CCOCC2)cc1` (stereo not drawn), the activation is inactive: -0.928%.

With `COc1ccc(-c2noc(CSc3nc(N)cc(=O)[nH]3)n2)cc1OC`, the activation is inactive: 16.3%.

For the compound `CCOC(=O)c1ccc(NC(=O)c2nc(SCc3ccccc3F)ncc2Cl)cc1`, the activation is inactive: -27.8%.

With `CCCCOC(=O)c1ccc(Nc2nnc(-n3nc(C)cc3C)c3ccccc23)cc1`, the activation was inactive: -12.5%.

Consider `Cc1nnc2c3ccccc3nc(Nc3cccc(O)c3)n12`, for which the activation is inactive: -12.4%.

On to `Cc1ccc(Cl)cc1NC(=O)C1CCN(c2nc3ccccc3n3cccc23)CC1`, for which the activation is inactive: -11.9%.

Turning to `CCCn1c2ccccc2c2cnn(CC(=O)NCCc3ccc(C)cc3)c(=O)c21`, the activation was inactive: 22.1%.

As to `CCOc1ccc2nc(N3CCCC(C(=O)NCc4ccccc4OC)C3)sc2c1` (stereo not drawn), the activation was inactive: -5.46%.

For `Cc1ccc(/C=C/c2onc(C)c2S(=O)(=O)N2CCC(C(=O)Nc3cc(F)ccc3F)CC2)cc1`, the activation was inactive: -4.31%.

Regarding `CCOc1ccc(S(=O)(=O)Nc2cc(Cl)ccc2OC)c2cccnc12`, the activation is inactive: 3.65%.

Turning to `COC(=O)C1=CO[C@@H](O)[C@@H]2C(CO)=CC[C@H]12`, the activation is inactive: -7.9%.

Take `Cc1cc(C)c2oc(C(=O)Nc3ccc(S(=O)(=O)Nc4nccc(C)n4)cc3)cc(=O)c2c1`: the activation was inactive: -5.75%.

On to `CCc1nn(CC(=O)NCCCOC)c(=O)c2cc3ccccc3n12`, for which the activation is inactive: 1.13%.

`Cc1ccc(CN2CCCn3nc(C(=O)NCC(C)c4ccccc4)cc3C2=O)cc1` (stereo not drawn): the activation is inactive: 5.75%.

In the case of `CC(=O)Nc1ccn(C2COC(COC(=O)c3ccccc3)O2)c(=O)n1` (stereo not drawn), the activation was inactive: -0.917%.

Regarding `COc1ccc(Nc2oc(/C=C/c3ccc(OC)c(OC)c3)nc2C#N)cc1`, the activation is inactive: -13.7%.

Take `COCCn1c(=O)[nH]c2cc(C(=O)Nc3cccc(C(C)=O)c3)ccc2c1=O`: the activation is inactive: 0.602%.

`CCCn1c(CCC(=O)Nc2ccccc2OC)nc2cccnc21`: the activation was inactive: -5.7%.

Consider `Cc1cc(C)cc(-n2ccn(Cc3ccc(F)cc3)c(=O)c2=O)c1`, for which the activation was inactive: -31.6%.

In the case of `CCOc1ccc(S(=O)(=O)NCCc2sc3nc(-c4ccc(C)cc4)nn3c2C)cc1`, the activation was inactive: -2.75%.

Regarding `Cc1cccc(C)c1Nc1c(-c2ccc(O)cc2)nc2sccn12`, the activation was inactive: -1.51%.

As to `O=c1c2sc3ccccc3c2n(Cc2cccc(C(F)(F)F)c2)c(=O)n1Cc1ccc(F)cc1`, the activation is inactive: 10.3%.

In the case of `O=c1oc2ccccc2cc1-c1cn2cc(Cc3ccc(Br)cc3)sc2n1`, the activation was inactive: -5.3%.

As for `COc1ccc2oc(-c3cccc(NC(=O)c4sc5c([N+](=O)[O-])cccc5c4Cl)c3)nc2c1`, the activation is inactive: -1.35%.

As for `COc1ccc(NC(=O)CC2C(=O)N(c3cccc(OC)c3)C(=O)N2Cc2ccc3c(c2)OCO3)cc1` (stereo not drawn), the activation was inactive: 30.3%.

Take `COc1cccc2c1C(=O)c1c(O)c3c(c(O)c1C2=O)C[C@@](O)(C(=O)CO)C[C@@H]3O[C@H]1C[C@H](N)[C@H](O[C@@H]2CCCCO2)[C@H](C)O1`: the activation is inactive: -36.5%.

For `Cc1ccc(-c2cn(-c3ccc(Cl)cc3)c(S(=O)(=O)CC(=O)Nc3ccccc3)n2)cc1`, the activation was inactive: -19.4%.

For the compound `Cc1ccc(Cn2c(SCc3ccc(C(=O)NC4CCCC4)cc3)nc3ccncc32)cc1`, the activation is inactive: 17.8%.

On to `CCn1c(=O)cc(OCC(=O)Nc2ccc(C)c(F)c2)c2ccccc21`, for which the activation was inactive: 5.53%.

`O=c1oc2ccccc2cc1-c1cn2cc(Cc3ccccc3F)sc2n1`: the activation was inactive: -1.63%.

Consider `Cc1nn(-c2ccccc2)c(OC(=O)C(C)(C)C)c1Sc1ccccc1`, for which the activation was inactive: -14.5%.

Regarding `CC(C)OC(=O)c1cc(C(=O)OC(C)C)cc([N+](=O)[O-])c1`, the activation is inactive: 7.92%.

Regarding `Cc1ccc2nc(NCCc3ccccc3)c3nncn3c2c1`, the activation is inactive: -1.77%.

`COCCn1c(=N)c(C(=O)NCc2ccco2)cc2c(=O)n3cc(C)ccc3nc21`: the activation was inactive: -11.4%.

For `COC(=O)c1cc(NS(=O)(=O)c2cc(Br)cc3c2N(C(C)=O)CC3)cc(C(=O)OC)c1`, the activation was inactive: -6.02%.

For the compound `Cc1ccc(-n2c(-c3ccco3)nc3c(cnn3-c3ccccc3C)c2=O)cc1`, the activation was inactive: 1.12%.

Take `Cc1ccc(C(=O)Nc2ccc3oc(-c4ccncc4)nc3c2)c(Cl)c1`: the activation is inactive: 43.9%.

Consider `Cc1cccc(-n2c(=O)c3c(c4cc(C)ccc4n3C)n(CC(=O)Nc3ccc(C)cc3C)c2=O)c1`, for which the activation was inactive: -1.82%.

For the compound `CCCC(=O)c1ccc(OC(=O)c2c(-c3ccccc3Cl)noc2C)cc1`, the activation was inactive: 4.13%.

Consider `Cc1nnc(NC(=O)C(=O)c2cc(C)n(-c3ccc(C)c(C)c3)c2C)s1`, for which the activation is inactive: 22.5%.

In the case of `COc1ccc(-c2ccc(CCC(=O)O)n2CC(=O)Nc2cccc(C(F)(F)F)c2)cc1`, the activation is inactive: -21.2%.

Regarding `COc1ccc(-c2cn3c(n2)sc2cc(C(=O)Nc4cc(OC)cc(OC)c4)ccc23)cc1`, the activation is inactive: -4.8%.

As for `N#Cc1c(NC(=O)CS(=O)(=O)c2ccc(Cl)cc2)sc2c1CCCCC2`, the activation was inactive: 7.61%.

On to `CCc1ccc(-n2c(=O)c3cccnc3n2CC(=O)Nc2ccccc2C(F)(F)F)cc1`, for which the activation is inactive: -21.7%.

For `CCOC(=O)c1c(NC(C)=O)c2c3c(sc2n1Cc1nc(-c2cccc(C)c2)oc1C)CCCC3`, the activation was inactive: -16.9%.

As for `COc1ccc(N2CCN(C(=O)c3ccc4c(Cl)c5c(nc4c3)CCCC5)CC2)cc1`, the activation was inactive: -9.02%.

For `OCCCc1nc2n(n1)C(c1cccc(Cl)c1)C=C(c1ccccc1)N2` (stereo not drawn), the activation was inactive: 8.94%.

As to `COc1ccccc1-c1nc(CNC(=O)Nc2ccccc2)c(C)o1`, the activation was inactive: 23%.

`COc1ccccc1C(=O)NC1=NC(c2ccc(Br)cc2)CC(=O)N1` (stereo not drawn): the activation is inactive: -2.66%.

As to `COc1cc(-c2cc(OC)c3c(C)oc(C)c3c(=O)c2)ccc1OC(=O)c1ccccc1F`, the activation was inactive: -19.4%.

On to `CCOc1ccc(-c2cc(C(=O)NCCc3ccc(Cl)cc3)c3ccccc3n2)cc1`, for which the activation was inactive: -19.5%.

In the case of `COc1ccc(CN2C(=O)N(c3ccc(C)cc3)C(=O)C2CC(=O)Nc2ccccc2)cc1OC` (stereo not drawn), the activation is inactive: -0.161%.

For `O=[N+]([O-])c1cc(-c2nc(-c3ccccc3)no2)ccc1NC1CCCC1`, the activation is inactive: -10.2%.
